# About 6,900 (2%) of roughly 340,000 compounds were called active. Rule as the data show it: active = inhibition above about 30%; inactive = below that, where a call was filed. This is a selection; strong and weak results do not stand in their true shares. Entries without a call were filed so in the source.
# Target: D(2) dopamine receptor (Homo sapiens) (UniProt P14416)
# Experiment: HTS Assay for Allosteric Antagonists of the Human D2 Dopamine Receptor: Primary Screen for Antagonists; also: 0% is about no effect
# Details: HEK293 TREx D2 cells, calcium flux, dopamine EC80; at 10 µM; stronger effect = higher value
# Procedure, shortened: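 Cells plated overnight at 30 C with tetracycline; no-wash calcium dye, 30–90 min RT; 10 s baseline; compound pinned; 180 s read; EC80 dopamine added; another 180 s read.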
# Chain of UniProt P14416 (P14416 whole entry, looked up): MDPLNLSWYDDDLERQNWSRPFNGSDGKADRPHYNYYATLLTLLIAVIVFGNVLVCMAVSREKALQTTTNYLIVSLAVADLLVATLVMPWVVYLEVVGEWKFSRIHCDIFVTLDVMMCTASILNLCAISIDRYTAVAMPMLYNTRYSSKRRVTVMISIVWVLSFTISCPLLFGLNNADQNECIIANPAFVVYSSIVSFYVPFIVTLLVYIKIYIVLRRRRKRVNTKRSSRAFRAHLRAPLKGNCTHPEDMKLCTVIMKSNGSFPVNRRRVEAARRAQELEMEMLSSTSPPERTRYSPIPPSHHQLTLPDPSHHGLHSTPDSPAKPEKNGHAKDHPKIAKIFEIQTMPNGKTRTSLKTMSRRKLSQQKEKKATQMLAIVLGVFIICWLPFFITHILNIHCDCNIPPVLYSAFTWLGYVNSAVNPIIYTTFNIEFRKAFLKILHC
row,Compound,inhibition
1,COc1ccc(-c2cc3nc(C)c(CCC(=O)Nc4cccc(C(F)(F)F)c4)c(C)n3n2)c(OC)c1,0.585%
2,CCn1cc2nc(SCC(=O)Nc3ccccc3F)n(Cc3ccc(C)cc3)c(=O)c2n1,-1.25%
3,Cc1ccnc(NC(=O)c2c(C)oc3ncn(CC(C)C)c(=O)c23)c1,11%
4,Cc1ccc(CNC(=O)Nc2cn(CC(C)C)c(=O)c3ccccc23)cc1,2.64%
5,O=C(CSc1nc2c([nH]c3ccccc32)c(=O)n1-c1ccc(F)cc1)NCc1ccc(F)cc1,-13.3%
6,CCOc1ccc(CCNC(=O)c2ccc3c(c2)nc2n3CCOC2)cc1OCC,0.607%
7,CC(C)OCCCNC(=O)CCCn1c(SCC(N)=O)nc2c(sc3ccccc32)c1=O,-5.79%
8,Cc1ccc(Cl)cc1NC(=O)C1CCN(C(=O)c2cnn(-c3ccccc3)c2-n2cccc2)CC1,13.1%
9,O=C(Nc1cccc(C(=O)OCc2cc(=O)n3c4c(sc3n2)CCCC4)c1)c1cccc(Cl)c1,-11.2%
10,Cn1cnc2c(=O)oc3ccc(S(=O)(=O)N4CCN(c5ccccc5F)CC4)cc3c21,5.46%
11,COc1cccc(NC(=O)Cn2nnc(C(=O)NCCc3ccccc3)c2N)c1,18.4%
12,Cc1nc(-c2ccc(S(=O)(=O)N(Cc3ccccc3)C(C)C)cc2)co1,-10.1%
13,Cn1cc(C(=O)Nc2ccc(C#N)cc2)c2ccccc2c1=O,-12%
14,COc1ccc(CCn2c(=O)c3cccnc3n(CC(=O)Nc3ccc(C)cc3C)c2=O)cc1OC,15.5%
15,CCN(CC)c1ccc(NC(=O)CN2CCN(S(=O)(=O)c3cc(Cl)ccc3OC)CC2)cc1,-5.35%
16,CN(C(=O)C1CCN(c2ncnc3c2nc2n3CCCCC2)CC1)c1ccccc1F,5.03%
17,COc1ccc(NC(=O)CSc2nc(-c3ccccc3)[nH]c2-c2ccccc2)cc1OC,0.291%
18,CC(C)C(NS(=O)(=O)c1ccc2c(c1)oc(=O)n2C)C(=O)NCc1ccccc1 (stereo not drawn),12.1%
19,CC(=O)c1ccc(N2CCN(C(=O)c3cc4c(s3)-c3ccccc3OC4)CC2)cc1,-14.3%
20,Cc1oc(-c2ccc(C(=O)NCc3ccccc3F)cc2)nc1COc1ccccc1,-15.8%
21,O=C(CCS(=O)(=O)c1nc(-c2cccs2)cc(C(F)(F)F)n1)Nc1ccc(F)c(Cl)c1,-11.5%
22,Cc1ccc(NC(=O)C2CCN(S(=O)(=O)c3ccc4c(c3)CCCN4C(=O)C3CCC3)CC2)cc1,-25.3%
23,O=C(NCCCN1CCCCC1)c1[nH]c2ccccc2c1Sc1ccc(Cl)cc1,12.9%
24,Cc1cc(C)nc(NS(=O)(=O)c2ccc(NC(=O)c3nc(SC(C)C)ncc3Cl)cc2)n1,12.5%

row,Compound,inhibition
1,Cc1c(Cl)cccc1-n1ncc(C(=O)N2CCC(C)CC2)c1C1CCN(C(=O)OC(C)(C)C)CC1,-7.09%
2,CCc1nn(CC(=O)N2CCN(c3cccc(Cl)c3)CC2)c(=O)c2cc3sccc3n12,2.01%
3,CCOc1ccc(NC(=O)Cn2c(=O)n(Cc3ccco3)c(=O)c3ccc(C(=O)NC4CCCC4)cc32)cc1,4.01%
4,CCCN(CCC)CCCNC(=O)c1ccc2c(c1)N(CC)C(=O)c1ccccc1S2=O (stereo not drawn),active: 107%
5,CCOc1ccc(N2CC(C(=O)NCc3ccc4c(c3)OCO4)CC2=O)cc1 (stereo not drawn),active: 36%
6,O=C1CC(c2cccc(Cl)c2Cl)c2cc3c(cc2N1)OCCO3 (stereo not drawn),12.3%
7,COc1cc(OC)c(NC(=O)Cn2c(SCc3ccccc3F)nc3cccnc32)cc1Cl,1.51%
8,Cc1ccccc1Cn1nc(C)c(NC(=O)c2cc(CC(C)C)on2)c1C,8.73%
9,COCCn1c(-c2ccc(NC(C)=O)cc2)nc2c1c(=O)[nH]c(=O)n2CC(C)C,active: 30.5%
10,CCOc1ccc(NC(=O)Cn2nc(SC)c(S(=O)(=O)c3ccccc3)c2N)cc1,10.6%
11,CC(=O)c1ccc(N2CCN(c3nc4ccccc4c4nc(-c5cccc(C)c5)nn34)CC2)cc1,-10.3%
12,Cc1ccc(Cn2ccnc2SCC(=O)Nc2ccccc2C(F)(F)F)cc1,0.812%
13,COc1ccc(OC)c(NC(=O)CCn2cccn2)c1,-3.07%
14,CCCn1c2ccccc2c2cnn(CC(=O)NCc3ccc(OC)cc3)c(=O)c21,-6.2%
15,CCOC(=O)c1ccccc1NC(=O)NCc1cccn1Cc1ccc(F)cc1,13.3%
16,Cc1cc(Cl)ccc1OCC(=O)N1CCC(c2nc3ccccc3o2)CC1,6.84%
17,CCOc1ccc(NC(=O)N2CCC(c3ccc(C)cc3)C2)cc1 (stereo not drawn),8.47%
18,O=C(COc1ccc(F)cc1)Nc1ccc(C(=O)OCc2cc(=O)n3nc(C4CC4)sc3n2)cc1,-2.99%
19,Cc1ccc(CN(Cc2cccn2-c2nnc(N3CCCC3=O)s2)C(=O)Nc2ccc(F)cc2)cc1,-4.37%
20,CCOc1ccc(NC(=O)c2sc3nc4c(cc3c2N)CN(Cc2ccccc2)CC4)cc1,4.13%
21,Cc1ccc(-n2nc(C(=O)Nc3ccc(Br)cc3C)c(=O)n(C)c2=O)cc1,-18.9%
22,COc1ccccc1CNC(=O)CSCc1nc(-c2ccc(OC)c(OC)c2)oc1C,-6.42%
23,COC(=O)c1ccc(NC(=O)C(=O)NCCc2csc(-c3ccc(C(F)(F)F)cc3)n2)cc1,-10.5%
24,CCCCNC(=O)c1sc(=S)n2c1[nH]c(=O)c1ccccc12,active: 32.7%

row,Compound,inhibition
1,COc1ccc(NC(=O)CN2CCN(CC(=O)Nc3ccccc3F)CC2)cc1OC,6.41%
2,Cc1oc(-c2ccccc2Cl)nc1CS(=O)CC(=O)NCc1ccccc1Cl (stereo not drawn),11.5%
3,O=S(=O)(c1ccc(F)cc1)N(Cc1nc(-c2ccccc2)no1)C1CCCCC1,-16.1%
4,CCOc1ccccc1CNC(=O)CCn1ccc2cc(S(=O)(=O)N3CCCCC3)ccc21,-3.92%
5,CCc1ccc(-n2c(=O)c3c(C)c(C(=O)N(C)C)sc3n(Cc3ccccc3F)c2=O)cc1,-23.5%
6,Cn1c(=O)c2sccc2n2c(CCCC(=O)Nc3ccc(Oc4ccc(Cl)cc4)cc3)nnc12,-12.3%
7,CC(=O)N1c2c(cc(Br)cc2S(=O)(=O)N2CCN(c3ccccc3)CC2)CC1C (stereo not drawn),8.35%
8,Cc1ccc(-c2cc3c(N4CCN(c5cc(C)ccc5C)CC4)nccn3n2)cc1,-16.3%
9,CC(C)CCOc1ccccc1Cn1c(=O)sc2ccccc21,8.83%
10,Cc1ccccc1NS(=O)(=O)c1ccc2[nH]c3c(c2c1)CCCCC3,-3.03%
11,CCOC(=O)c1cc(-c2ccccc2)n(CCC(=O)Nc2nc3c(C)cccc3s2)c1C,9.98%
12,Cc1ccc(Cl)cc1N1CCN(C(=O)c2ccc3nc(N4CCC(C)CC4)sc3c2)CC1,5.17%
13,COc1ccc(/C=C/C(=O)Nc2ccc(Cl)c(Cl)c2)cc1,3.54%
14,Cc1cc(-c2ccc(C)c(S(=O)(=O)Nc3cccc(C#N)c3)c2)on1,-15.5%
15,CCCCn1c(NC(=O)c2ccccc2)c(C#N)c2nc3ccccc3nc21,active: 37.8%
16,CCOc1ccc(CCNC(=O)c2c(C)oc3ncn(C)c(=O)c23)cc1,1.04%
17,O=C(COc1ccc(F)cc1)NCCc1nc2ccccc2[nH]1,-14.1%
18,O=c1c2sccc2n(Cc2cc(=O)n3ccccc3n2)c(=O)n1-c1cccc(C(F)(F)F)c1,-12.5%
19,Cc1ccc2oc(-c3cccc(NC(=O)c4sc5c([N+](=O)[O-])cccc5c4Cl)c3)nc2c1,6.78%
20,Cc1cnc(=O)[nH]c1SCC(=O)Nc1nc2ccccc2s1,0.622%
21,Cc1ccc(-c2nnc(SCC(=O)NCc3ccccc3)nc2-c2ccc(C)cc2)cc1,25.4%
22,Cc1ccccc1-c1cc(C(=O)NCc2ccc3c(c2)OCO3)n(CC2CC(c3cccnc3)=NO2)n1 (stereo not drawn),active: 82.9%
23,CNS(=O)(=O)c1cc(-c2nnc(Nc3cc(C)ccc3C)c3ccccc23)ccc1C,-0.897%
24,Cc1cc2c(cc3c(SCC(=O)Nc4cccc(Cl)c4C)nnc(C)n32)o1,1.31%

row,Compound,inhibition
1,CCc1ccc(C(=O)NC(Cc2c[nH]c3ccccc23)C(=O)OCC(=O)c2ccc(Br)cc2)cc1 (stereo not drawn),0.0914%
2,CCOC(=O)c1cnc2ccccc2c1Nc1cccc(OC)c1,-2.58%
3,CCN1CCN(C(=O)c2ccc3c(c2)N(Cc2ccccc2F)C(=O)c2ccccc2S3=O)CC1 (stereo not drawn),-18.2%
4,Cc1ccc(-n2c3c(cc(C(=O)Nc4cccc(Cl)c4)c2=O)C(=O)CC(C)(C)C3)cc1,-7.78%
5,Clc1ccc(CN2CCN(c3ncccn3)CC2)c(Cl)c1,active: 89.8%
6,Cc1ccc(Cl)cc1N1CCN(C(=O)CCCCCn2c(=O)[nH]c3ccccc3c2=O)CC1,-15.7%
7,COc1ccccc1N1CCN(Cc2ccc(OC)c3ccccc23)CC1,active: 72.3%
8,CCc1ccc(NC(=O)C2CCCN(S(=O)(=O)c3c(C)noc3/C=C/N(C)C)C2)cc1 (stereo not drawn),11.7%
9,CCOc1ccccc1-c1nc(SCC(=O)c2ccc(OC)c(Br)c2)n[nH]1,-0.221%
10,CC(C)OC(=O)c1cccnc1SCC(=O)Nc1ccc(C(F)(F)F)cc1Cl,26.9%
11,CCOC(=O)c1c(-c2ccccc2)csc1NC(=O)c1cc(-c2ccc(C)c(F)c2)on1,16.6%
12,Cc1cccc(C(=O)Nc2ccc(OCc3cc(=O)n4ccsc4n3)cc2)c1,11.1%
13,O=C(NC1CCCCCC1)C1c2ccccc2C(=O)N1Cc1ccccc1Cl (stereo not drawn),15.9%
14,CCN(CC)S(=O)(=O)c1ccc2c(c1)N(CC(=O)N1CCN(c3ccc(Cl)cc3)CC1)C(=O)CO2,-5.02%
15,O=C(O)[C@@H]1[C@H]2C[C@H]3c4[nH]c5ccccc5c4CCN3C[C@@H]2CC[C@@H]1O,active: 68%
16,CCOc1ccc(NC(=O)CN(C)c2nnnn2-c2ccccc2)cc1OCC,active: 35.1%
17,CC(=O)N/C(=C/c1ccc(Cl)cc1)C(=O)NCCc1c[nH]c2ccccc12,active: 31%
18,COC(=O)CSc1ncc2c(n1)-c1ccccc1N(Cc1cccc(F)c1)S2(=O)=O,0.952%
19,CCN1C(=O)c2ccccc2S(=O)(=O)c2ccc(C(=O)NCc3ccccc3Cl)cc21,-8.55%
20,COc1cccc(CNC(=O)c2c(C)oc3nc(C)nc(N4CCOCC4)c23)c1,6.12%
21,CCOC(=O)C1CCN(C(=O)CSc2n[nH]c(-c3ccc(F)cc3)n2)CC1,-21.8%
